Data on 6 molecules can be found in publication PMC12136788.

This is one part of the list.

T1: UNK ZnF1-3 (human, UniProt Q9C0B0 31-174)
T1 sequence: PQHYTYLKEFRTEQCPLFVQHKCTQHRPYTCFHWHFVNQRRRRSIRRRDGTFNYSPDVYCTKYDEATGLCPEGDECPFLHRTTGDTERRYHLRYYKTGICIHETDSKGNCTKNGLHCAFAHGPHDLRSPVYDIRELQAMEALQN

B1: chr5:74425352:74425353:-_ENSMUSG00000054814_ENSMUST00000068058|mus_hu|FALSE|FALSE (ssRNA)
RNA: GGGAGUUCUACAGUCCGACGAUCUUCCUGUUUCUUCUCCUCCUGAAGGAUGUCCGCAAUAGUGUUUAGCAAAUAAUUUAAAAAUUCAUGAGCAUCCUGCUGCAUGUAGUUAUCAAAGAGAUCAUUCUCUUUUCUCAGCCUUGACAACAGAGGAUUGAGCAUCA
B2: chr2:202488911:202488912:-_ENSG00000155755_ENST00000286196|hu_mus|hu_hu_hu_mus_False|58_78 (ssRNA)
RNA: GGGAGUUCUACAGUCCGACGAUCAUUGAAACAUUUUUCAUAAUCUCCAGUAGCAUUCAGUAUUAUAGUAACAAAAGAUCUAUUACAAAUACAUGUAUCUUAUAAAAAUACACUUAAAAACACGAGUGGGGAGCGCAGGCGCCACAACAGAGGAUUGAGCAUCA
B3: chr11:77336104:77336105:-_ENSG00000074201_ENST00000525064|hu_mus|hu_hu_hu_mus_False|48_58 (ssRNA)
RNA: GGGAGUUCUACAGUCCGACGAUCCUCACACAUUGCUGUGAACAUCGCCUCCAAUGCUGACUUAUCACUGGGCACAAAUCUAAAUUCAGUAAUAGGUUCAACAUCAUCAUUGUCUUCCUCAUCUUCAUCAGAGAGAGGUUCUUUCAACAGAGGAUUGAGCAUCA
B4: chr15:66169770:66169771:+_ENSG00000103769_ENST00000567671|hu_hu|FALSE|FALSE (ssRNA)
RNA: GGGAGUUCUACAGUCCGACGAUCGUCCCAUAUCUGUGCCUUUAUUGUUUUUCCAUCAACCUGGAUGCUUCUUGUUGCAAACUCUACUCCAAUGGUGCUCUUGCUUUCCAGAUUAAACUCAUUUCGAGUAAAUCGAGACAGGAGCAACAGAGGAUUGAGCAUCA
B5: chrX:12734859:12734860:+_ENSMUSG00000031010_ENSMUST00000089302|mus_mus|motif|central (ssRNA)
RNA: GGGAGUUCUACAGUCCGACGAUCAUCACUGGCAGAUCCUCGGACUAUUUUCUUUGUGUGAAAUCCUGUAGUAAAAAGGAACCGGGCAGCAAGCUGAAUACUAAUCAUAGUGAUUUCUUCUGCUUCAGGAGACAGGUGAUCUUGCAACAGAGGAUUGAGCAUCA
B6: chr5:135101456:135101457:-_ENSMUSG00000040731_ENSMUST00000036125|mus_hu|FALSE|FALSE (ssRNA)
RNA: GGGAGUUCUACAGUCCGACGAUCGCCCAACAGUGCACCAUCGUAUGUCAAGGCUUCCUUAAGGGAAUCCACUUCAUCGAAUUCUACAUAGCAGAAUCCUUUAAAUUUAUCUGUGUCUUUGUCUCUGACUAGCCGUACACUCCUCAACAGAGGAUUGAGCAUCA

The target of the test is T1, UNK ZnF1-3. Kind of test: nsRBNS (natural sequence RNA bind-n-seq); RBNS binding buffer (assumed for nsRBNS): 25 mM Tris pH 7.5, 150 mM KCl, 3 mM MgCl2, 0.01% Triton X-100, 500 ug/ml BSA, 20 U/ml SUPERase-In, 4 C; UNK is unkempt and MSI1 is Musashi-1; names of the RNAs are library labels; protein concentration not given here; high values mean tight binding.
In turn, B1 gave a binding signal of 1.25 enrichment R.

B2 displayed a binding signal of 1.2 enrichment R.

As for B3, the binding signal turned out to be 1 enrichment R.

Molecule B4 had a binding signal of 0.876 enrichment R.

In turn, B5 displayed a binding signal of 1.38 enrichment R.

B6 gave a binding signal of 1 enrichment R.
